Molecules are shown by their SMILES.

The test concerns MLKL phosphorylation, HT29-L23 human colorectal adenocarcinoma cells. The test is described as follows: cells. The following applies: read-out: pMLKL HCS Cell Assay (IC50, uM).
As to `Cc1c(F)cc(-c2cc(C(F)(F)F)c3c(N)ncnn23)cc1C(=O)N[C@@H]1CN(C(=O)C(C)(C)C(F)(F)F)C[C@@H]1F` [Example 676, 5-[4-amino-5-(trifluoromethyl)pyrrolo[2,1-f][1,2,4]triazin-7-yl]-3-fluoro-N-[(3R,4S)-4-fluoro-1-(3,3,3-trifluoro-2,2-dimethylpropanoyl)pyrrolidin-3-yl]-2-methylbenzamide], the IC50 (as a rule, the concentration at which inhibition is half-maximal) amounted to 0.0025 µM.

On to `COc1ncc(-c2cc(C(F)(F)F)c3c(N)ncnn23)cc1C(=O)Nc1nc(C(=O)NC2CCCC2)co1` [Example 1303, 5-[4-amino-5-(trifluoromethyl)pyrrolo-[2,1-f][1,2,4]triazin-7-yl]-N-[4-(cyclopentylcarbamoyl)-1,3-oxazol-2-yl]-2-methoxypyridine-3-carboxamide], for which the IC50 amounted to 0.291 µM.

As to `Cc1c(F)cc(-c2cc(C(F)(F)F)c3c(N)ncnn23)cc1C(=O)N[C@@H]1CN(C(=O)C2CC(F)C2)C[C@@H]1F` (stereo partly drawn) [Example 678, 5-[4-amino-5-(trifluoromethyl)pyrrolo[2,1-f][1,2,4]triazin-7-yl]-3-fluoro-N-[(3R,4S)-4-fluoro-1-(3-fluorocyclobutanecarbonyl)pyrrolidin-3-yl]-2-methylbenzamide], the half-inhibitory concentration (IC50) was found to be 0.0029 µM.

Consider `COc1ccc(-c2cc(C(F)(F)F)c3c(N)ncnn23)cc1C(=O)N[C@@H]1CN(C(=O)CC(C(F)(F)F)C(F)(F)F)C[C@@H]1F` [Example 1131, 5-[4-amino-5-(trifluoromethyl)pyrrolo[2,1-f][1,2,4]triazin-7-yl]-N-[(3R,4S)-4-fluoro-1-[4,4,4-trifluoro-3-(trifluoromethyl)butanoyl]pyrrolidin-3-yl]-2-methoxybenzamide], for which the half-inhibitory concentration (IC50) worked out at 0.0033 µM.

Regarding `COc1ncc(-c2cc(C(F)(F)F)c3c(N)ncnn23)cc1C(=O)N[C@@H]1CN(C(=O)O[C@H](C)CO)C[C@@H]1F` [Example 1450, (2R)-1-hydroxypropan-2-yl (3R,4S)-3-{5-[4-amino-5-(trifluoromethyl)pyrrolo[2,1-f][1,2,4]triazin-7-yl]-2-methoxypyridine-3-amido}-4-fluoropyrrolidine-1-carboxylate], the IC50 stood at 0.164 µM.

Take `COc1ncc(-c2cc(C(F)(F)F)c3c(N)ncnn23)cc1C(=O)Nc1ncn(Cc2ccccc2)n1` [Example 1344, 5-[4-amino-5-(trifluoromethyl)pyrrolo[2,1-f][1,2,4]triazin-7-yl]-N-(1-benzyl-1H-1,2,4-triazol-3-yl)-2-methoxypyridine-3-carboxamide]: the IC50 is 0.0083 µM.

In the case of `COc1ncc(C(=O)N2C[C@H](F)[C@H](NC(=O)c3cc(-c4cc(C(F)(F)F)c5c(N)ncnn45)cnc3OC)C2)cn1` [Example 1211, 5-[4-amino-5-(trifluoromethyl)pyrrolo[2,1-f][1,2,4]triazin-7-yl]-N-[(3R,4S)-4-fluoro-1-(2-methoxypyrimidine-5-carbonyl)pyrrolidin-3-yl]-2-methoxypyridine-3-carboxamide], the IC50 was determined as 0.116 µM.

As for `COc1ncc(-c2cc(C(F)(F)F)c3c(N)ncnn23)cc1C(=O)NC1CN(Cc2ccccc2F)CC1F` (racemic) [Example 217, 5-[4-amino-5-(trifluoromethyl)pyrrolo[2,1-f][1,2,4]triazin-7-yl]-N-{4-fluoro-1-[(2-fluorophenyl)methyl]pyrrolidin-3-yl}-2-methoxypyridine-3-carboxamide], the IC50 came out at 0.0046 µM.

With `COc1ncc(-c2cc(C(F)(F)F)c3c(N)ncnn23)cc1C(=O)N[C@@H]1CN(C(=O)C(F)(F)F)C[C@@H]1F` [Example 1228, 5-[4-amino-5-(trifluoromethyl)pyrrolo[2,1-f][1,2,4]triazin-7-yl]-N-[(3R,4S)-4-fluoro-1-(2,2,2-trifluoroacetyl)pyrrolidin-3-yl]-2-methoxypyridine-3-carboxamide], the IC50 was 0.04 µM.

As to `C[C@H]1CN(C(=O)C2CCC(F)(F)CC2)C[C@H]1NC(=O)c1cc(-c2cc(C(F)(F)F)c3c(N)ncnn23)cnc1C(F)(F)F` [Example 24, 5-[4-amino-5-(trifluoromethyl)pyrrolo[2,1-f][1,2,4]triazin-7-yl]-N-[(3S,4S)-1-(4,4-difluorocyclohexanecarbonyl)-4-methylpyrrolidin-3-yl]-2-(trifluoromethyl)pyridine-3-carboxamide], the IC50 came out at 0.247 µM.

Regarding `Cc1ccc(-c2cc(C(F)(F)F)c3c(N)ncnn23)cc1C(=O)N[C@@H]1CN(C(=O)c2c(F)cccc2Cl)C[C@@H]1F` [Example 1041, 5-[4-amino-5-(trifluoromethyl)pyrrolo[2,1-f][1,2,4]triazin-7-yl]-N-[(3R,4S)-1-(2-chloro-6-fluorobenzoyl)-4-fluoropyrrolidin-3-yl]-2-methylbenzamide], the IC50 was 0.0015 µM.

In the case of `COc1ncc(-c2cc(C(F)(F)F)c3c(N)ncnn23)cc1C(=O)N[C@@H]1CC2(C[C@@H]1F)OCC(C)(C)CO2` (racemic) [Example 1846, 5-(4-amino-5-(trifluoromethyl)pyrrolo[2,1-f][1,2,4]triazin-7-yl)-N-((2RS,3SR)-3-fluoro-8,8-dimethyl-6,10-dioxaspiro[4.5]decan-2-yl)-2-methoxynicotinamide], the IC50 worked out at 0.457 µM.

Turning to `CC#CCOC(=O)N1C[C@H](F)[C@H](NC(=O)c2cc(-c3cc(C(F)(F)F)c4c(N)ncnn34)cnc2OC)C1` [Example 1438, but-2-yn-1-yl (3R,4S)-3-{5-[4-amino-5-(trifluoromethyl)pyrrolo[2,1-f][1,2,4]triazin-7-yl]-2-methoxypyridine-3-amido}-4-fluoropyrrolidine-1-carboxylate], the concentration for half-maximal inhibition (IC50) is 0.136 µM.

Turning to `Cc1cc(F)c(-c2cc(C(F)(F)F)c3c(N)ncnn23)cc1C(=O)N[C@@H]1CN(C(=O)c2cccc(Br)n2)C[C@@H]1F` [Example 844, 5-[4-amino-5-(trifluoromethyl)pyrrolo[2,1-f][1,2,4]triazin-7-yl]-N-[(3R,4S)-1-(6-bromopyridine-2-carbonyl)-4-fluoropyrrolidin-3-yl]-4-fluoro-2-methylbenzamide], the IC50 stood at 0.024 µM.

With `COc1ncc(-c2cc(C(F)(F)F)c3c(N)ncnn23)cc1C(=O)N[C@@H]1CN(S(=O)(=O)CCC(F)(F)F)C[C@@H]1F` [Example 1484, 5-[4-amino-5-(trifluoromethyl)pyrrolo[2,1-f][1,2,4]triazin-7-yl]-N-[(3R,4S)-4-fluoro-1-(3,3,3-trifluoropropanesulfonyl)pyrrolidin-3-yl]-2-methoxypyridine-3-carboxamide], the IC50 turned out to be 0.0019 µM.

Turning to `Cc1cc(F)c(-c2cc(C(F)(F)F)c3c(N)ncnn23)cc1C(=O)N[C@@H]1CN(C(=O)C(C)C(F)(F)F)C[C@@H]1F` (stereo partly drawn) [Example 858, 5-[4-amino-5-(trifluoromethyl)pyrrolo[2,1-f][1,2,4]triazin-7-yl]-4-fluoro-N-[(3R,4S)-4-fluoro-1-(3,3,3-trifluoro-2-methylpropanoyl)pyrrolidin-3-yl]-2-methylbenzamide], the IC50 was determined as 0.0072 µM.

With `Cc1c(F)cc(-c2cc(C(F)(F)F)c3c(N)ncnn23)cc1C(=O)N[C@@H]1CN(C(=O)CC(C)C(F)(F)F)C[C@@H]1F` (stereo partly drawn) [Example 662, 5-[4-amino-5-(trifluoromethyl)pyrrolo[2,1-f][1,2,4]triazin-7-yl]-3-fluoro-N-[(3R,4S)-4-fluoro-1-(4,4,4-trifluoro-3-methylbutanoyl)pyrrolidin-3-yl]-2-methylbenzamide], the IC50 was 0.0014 µM.

In the case of `Cc1cc(F)c(-c2cc(C(F)(F)F)c3c(N)ncnn23)cc1C(=O)N[C@@H]1CN(C(=O)C2CC2(F)F)C[C@@H]1F` (mixture of isomers) [Example 807, 5-[4-amino-5-(trifluoromethyl)pyrrolo[2,1-f][1,2,4]triazin-7-yl]-N-[(3R,4S)-1-(2,2-difluorocyclopropanecarbonyl)-4-fluoropyrrolidin-3-yl]-4-fluoro-2-methylbenzamide], the IC50 amounted to 0.013 µM.

Consider `COc1c(F)cc(-c2cc(C(F)(F)F)c3c(N)ncnn23)cc1C(=O)N[C@@H]1CN(C(=O)C(C)C(F)(F)F)C[C@@H]1F` (stereo partly drawn) [Example 694, 5-[4-amino-5-(trifluoromethyl)pyrrolo[2,1-f][1,2,4]triazin-7-yl]-3-fluoro-N-[(3R,4S)-4-fluoro-1-(3,3,3-trifluoro-2-methylpropanoyl)pyrrolidin-3-yl]-2-methoxybenzamide], for which the IC50 worked out at 0.026 µM.

Consider `COc1ncc(-c2cc(C(F)(F)F)c3c(N)ncnn23)cc1C(=O)N[C@@H]1CN(C(=O)c2cccnn2)C[C@@H]1F` [Example 1210, 5-[4-amino-5-(trifluoromethyl)pyrrolo[2,1-f][1,2,4]triazin-7-yl]-N-[(3R,4S)-4-fluoro-1-(pyridazine-3-carbonyl)pyrrolidin-3-yl]-2-methoxypyridine-3-carboxamide], for which the IC50 turned out to be 0.264 µM.

As for `COc1ncc(-c2cc(C(F)(F)F)c3c(N)ncnn23)cc1C(=O)N[C@@H]1CN(C(=O)C2CC23CC3)C[C@@H]1F` (stereo partly drawn) [Example 1223, 5-[4-amino-5-(trifluoromethyl)pyrrolo[2,1-f][1,2,4]triazin-7-yl]-N-[(3R,4S)-4-fluoro-1-{spiro[2.2]pentane-1-carbonyl}pyrrolidin-3-yl]-2-methoxypyridine-3-carboxamide], the IC50 worked out at 0.041 µM.

Take `COc1ncc(-c2cc(C(F)(F)F)c3c(N)ncnn23)cc1C(=O)N[C@@H]1CN(C(=O)OC(C)CC(F)(F)F)C[C@@H]1F` (stereo partly drawn) [Example 1441, 4,4,4-trifluorobutan-2-yl (3R,4S)-3-{5-[4-amino-5-(trifluoromethyl)pyrrolo[2,1-f][1,2,4]triazin-7-yl]-2-methoxypyridine-3-amido}-4-fluoropyrrolidine-1-carboxylate]: the IC50 is 0.0075 µM.

Consider `COc1ncc(-c2cc(C(F)(F)F)c3c(N)ncnn23)cc1C(=O)N[C@@H]1CN(CC2CCCCC2)C[C@@H]1F` (racemic) [Example 40, cis-racemic-5-[4-amino-5-(trifluoromethyl)pyrrolo[2,1-f][1,2,4]triazin-7-yl]-N-[1-(cyclohexylmethyl)-4-fluoropyrrolidin-3-yl]-2-methoxypyridine-3-carboxamide], for which the IC50 is 0.082 µM.

`COc1ncc(-c2cc(C(F)(F)F)c3c(N)ncnn23)cc1C(=O)N[C@@H]1CN(C(=O)N2CCCCC2)C[C@@H]1F` [Example 1844, 5-(4-amino-5-(trifluoromethyl)pyrrolo[2,1-f][1,2,4]triazin-7-yl)-N-((3R,4S)-4-fluoro-1-(piperidine-1-carbonyl)pyrrolidin-3-yl)-2-methoxynicotinamide]: the IC50 turned out to be 0.12 µM.

The values are drawn from patent US11618753B2 (priority 2018, dated 2023).
